# Whole data set: some 4,500 sequences, median “median log2 fold change of GCK-ALFA target abundance (FLAG IP / Myc IP barcode read proportion)” near 0.078, cut for the lowest 2% near -0.6. Some of the results follow.
# B1: GBRAP_166_4913 (protein)
# chain: SMEELVEKAKKEIEELVKKMPELDEEGQIEALIEIAEIIEKLKEAGASEEEILEVLRHLAESLKEEGLDVRHYMAIVAAAAGFDEEMMDKIDEIVEEVLA
# B2: GBRAP_128_3588 (protein)
# chain: SSEEVREYVRKLLEAMKTANAEERKELARELFAYFATLSLEEQEAAVETIKELLPELSAEDLDVLADAAREARPQLSPERAELVADLEVEALNEAVEKEE
# B3: GBRAP_160_4071 (protein)
# chain: SAALEKLKKEVEELVEEAKKLIEGETPEQRLVIIEVELGNIILEFDSNEEVSDELADKIAEIADETVEEFRANPDMSEEEVKKLLEETRDKILKLIDEAE
# B4: GBRAP_78_6669 (protein)
# chain: ELEEKVEEALKLVSEAARLSKVLPEEERNALLDHLVDAMSDLLESIEEGIKLENVEEALKHLNEAEKLLEKLNSPEAEPILKLVKEAKELVEEVIKELKK
# B5: GBRAP_128_3357 (protein)
# chain: LDEEFLEEVRALWEEIVNSDVETTYELTKELLRKIAEASPEEREAAVEIAHEYLPKLTAEKLEAVADAIREMWPEFDPYTRELMADLEVEALNLAEEKEE
# B6: GBRAP_35_5531 (protein)
# chain: NSDEEIAEMLLNTMEDLVLALPDVSPEEQLALARHLIRLARDFIELKTKSAELIKRLIEVLERAIELIKASDLPPEEKAALIAELEKLKEEAEKLLKEVE
# B7: GBRAP_125_3032 (protein)
# chain: EKEELAKNLALIAKALGFSEDDVKELVELAKKHGIKGAMIAIALAEGNEELAELLEKLTEEEVAKVVKELAKYLEENPDLTPEEVLEKLKEIAEKAVKES
# B8: GBRAP_125_2983 (protein)
# chain: PTPAQLADLATFAKALGLDDAEAAEAAALAAAHSLKQTVYAILAALGEEELADLVAKLTEAEVAEVLAAVAAYLAAHPDATPEEVLARFRELAEAALAKR
# B9: GBRAP_128_3541 (protein)
# chain: SLEEAKEKAKKVMEEIKNSTPEEAAKITKEFLEELKTWSDEEVEAAVEVIEELLPELTAEKLEVVADTIEEERPKFSPEKQNLLAGVEVEALNLAEEQEE
# B10: GBRAP_184_5349 (protein)
# chain: TTRDVLIEADTVDEAIAKLRAAAAEARAAGATLNVLIDVPINTKEEAEKLMDEVAELAAEGIVAGTVGITNVSDDDEIIDILVDRADEAGVRLVLAIDEE
# B11: GBRAP_35_5525 (protein)
# chain: NSDRTAAEMLVNTIEDLTLAVPDMPVDTLVAATRALVRSARELVEDLKDDPEALARLREALAALLAAIRRHHADDPAAAAAAAEVAAVIAEVEEALAAAA
# B12: GBRAP_186_5368 (protein)
# chain: SEKAKKEEEEFIDEAADKGHIVIGTLVVKEFTEEAKKRIEDEIRAAAEFSKEFGYKVAIIIKLKGSEEEYEELKKFVEEKVEELKKETGAEVEVKIIHDK
# B13: GBRAP_18_5400 (protein)
# chain: APSPFERAWAALSEELQAAVAKAIGDALSSEDEEERIDILVDALVEFAARTSPEELEAAAYLLLHSVVSRMEEAEEVARRFIERVPEMKPQAEAVVERLK
# B14: GBRAP_80_6853 (protein)
# chain: AEARLEKALAELAAVLPEAKPLAEEIVKLAKELGVPDEVIADTLEALTELAKVDPEEAKELLEELLEELKELKEEGDSEGAKAVLQGYAGEALLEAEELE
# B15: GBRAP_184_5279 (protein)
# chain: TVIHVELEAESGEEAMAQIRAAAAAARAAGAQLDLTLLLEGASEEEIMAVFDLLKALRDEGVIRRAVLGVDLPDDEETIDRLIERADEAGVRLVIAIEEK
# B16: GBRAP_35_5506 (protein)
# chain: DSMSTIADMLVATIDDTVLAIPDLDVETAVQISRQLIRSAREVAEDLKDDPEGLKRLRDSMERLRDALVKHYGDNPLAQEAIKEIDELIKELEERIKEAE
# B17: GBRAP_160_4767 (protein)
# chain: KEELKKLLEEVKEIFDEAIEMLKESPASEAPTIIAGAMGDVIMEVESSPAVSDELEEKIAEIMDKAEEEAKKLANAPKEEHIKLLEEAREKITKLIEEEI
# B18: GBRAP_80_6828 (protein)
# chain: AEKELEAVIKELAEVDPEIAKLVEEAIEIAKELGVPLEVLLRFAKAILELAKVDKEKALELVKELLEELKKAKEEGNRDEAIALLYDAESEALLAVEELE
# B19: GBRAP_52_6343 (protein)
# chain: SEEEIREVAEKIAEAVKAGDLEKAVELTREAAKRFSEEEVEEMLRITAELMVEALPDREDLAWEAAERLAKVVEEELGNEELADLYLAYLARLLVERRRA
# Target: GABARAP, O95166
# Assay: median log2 fold change of GCK-ALFA target abundance (FLAG IP / Myc IP barcode read proportion) (log2 ratio); each designed protein is fused to an ALFA-tag nanobody in HEK293 cells to bring the named protein to FLAG-tagged glucokinase (GCK); Myc marks an untargeted standard; higher = target protein stabilised (more abundant)
# Conditions: target protein: 3xFLAG-MCP-GCK-ALFA reporter; HEK293 landing pad (RPLP)
# Outline: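 Sequencing of reverse-transcribed, amplified circular RNA barcodes from anti-FLAG and anti-Myc immunoprecipitates provided the readout for an ALFA-nanobody-fused binder library recombined into HEK293 landing-pad cells. Those cells were induced with 2 μg mL^−1 doxycycline, transfected with a plasmid expressing a FLAG-tagged target and a Myc-tagged standard, and lysed after 48 h. Target abundance is the per-binder median log2 ratio of FLAG to Myc barcode read proportions. Only barcodes at a proportion of ≥10^−7 in both replicates and binders with ≥3 barcodes per replicate were kept, with a 10^−6 pseudocount added before the two replicates were pooled.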
# GABARAP, O95166, sequence (O95166 whole entry, the tested form may be a part): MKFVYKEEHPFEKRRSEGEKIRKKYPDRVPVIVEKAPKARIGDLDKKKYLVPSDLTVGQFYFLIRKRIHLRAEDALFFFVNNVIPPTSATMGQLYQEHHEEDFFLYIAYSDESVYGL
row,Binder,median log2 fold change
1,B1,0.0349
2,B2,-0.153
3,B3,-0.191
4,B4,0.177
5,B5,0.152
6,B6,0.118
7,B7,0.147
8,B8,-0.141
9,B9,0.096
10,B10,0.135
11,B11,0.152
12,B12,-0.0705
13,B13,0.0564
14,B14,-0.267
15,B15,0.0885
16,B16,-0.631
17,B17,0.185
18,B18,0.0224
19,B19,0.039

# Reference: the supplement of paper PMC12632987
